For test [1], the target named is T1, KNAT1/B…US (BP) fused with a half of YFP (BiFC) (Arabidopsis thaliana) (UniProt P46639).
T1 sequence: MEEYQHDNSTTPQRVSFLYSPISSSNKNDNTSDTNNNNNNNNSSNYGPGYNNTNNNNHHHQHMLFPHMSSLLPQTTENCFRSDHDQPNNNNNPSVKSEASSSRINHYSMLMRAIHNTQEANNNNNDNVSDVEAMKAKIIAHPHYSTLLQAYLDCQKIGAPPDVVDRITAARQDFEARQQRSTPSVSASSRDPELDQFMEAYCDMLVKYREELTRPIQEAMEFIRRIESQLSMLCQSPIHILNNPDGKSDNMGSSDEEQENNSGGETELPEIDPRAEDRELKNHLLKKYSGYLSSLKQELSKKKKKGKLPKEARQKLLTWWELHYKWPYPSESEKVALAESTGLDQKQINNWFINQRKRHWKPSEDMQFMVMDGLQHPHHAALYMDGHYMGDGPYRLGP
The test can be described thus: split reporter; BiFC: fusions with YFP N- or C-terminal half (pSPYNE-35S, pSPYCE-35S) co-introduced into the abaxial side of Nicotiana benthamiana leaves; imaged 48 h after co-infiltration; YFP fluorescence in nuclei.

For test [2], the target named is T2, JAGGED (JAG), yeast two-hybrid fusion (Arabidopsis thaliana) (UniProt Q6S591).
T2 sequence: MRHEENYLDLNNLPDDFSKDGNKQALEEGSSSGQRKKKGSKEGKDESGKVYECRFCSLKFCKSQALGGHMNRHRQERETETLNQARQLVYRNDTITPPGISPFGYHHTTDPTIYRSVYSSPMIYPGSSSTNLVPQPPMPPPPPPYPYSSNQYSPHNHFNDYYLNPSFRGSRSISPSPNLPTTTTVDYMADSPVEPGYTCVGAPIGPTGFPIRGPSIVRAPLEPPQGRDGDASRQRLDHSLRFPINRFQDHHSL
The test can be described thus: two-hybrid; Matchmaker GAL4 Two-Hybrid System 3, pGBKT7 bait and pGADT7 prey in yeast strain AH109; growth on medium lacking Leu, Trp, His and Ade or supplemented with 2.5 mM 3-AT.

Test [3] deals with T3, SPATULA (SPT)-YFPN (Arabidopsis thaliana) (UniProt Q9FUA4).
T3 sequence: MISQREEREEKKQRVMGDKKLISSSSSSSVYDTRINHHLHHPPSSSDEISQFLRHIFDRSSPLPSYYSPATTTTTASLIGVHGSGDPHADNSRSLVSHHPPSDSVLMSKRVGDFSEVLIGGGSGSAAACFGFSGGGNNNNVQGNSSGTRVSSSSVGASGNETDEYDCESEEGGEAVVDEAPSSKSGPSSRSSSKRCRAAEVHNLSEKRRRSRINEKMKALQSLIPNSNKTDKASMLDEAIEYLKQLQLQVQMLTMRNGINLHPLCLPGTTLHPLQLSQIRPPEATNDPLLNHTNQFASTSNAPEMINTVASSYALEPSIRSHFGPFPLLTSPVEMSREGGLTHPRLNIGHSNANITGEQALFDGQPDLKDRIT
The test can be described thus: split reporter; BiFC: fusions with YFP N- or C-terminal half (pSPYNE-35S, pSPYCE-35S) co-introduced into the abaxial side of Nicotiana benthamiana leaves; imaged 48 h after co-infiltration; YFP fluorescence in nuclei.

These are yes or no findings as the source states them, for the method shown. For part of these data: In cells and extracts the contact can be indirect. Some binding calls cover weakened binding; strength is not graded here. For part of these data: Tags and fused reporters may be left off the sequences shown.

B1: PINHEAD (PNH) fused with a half of YFP (BiFC) (protein, UniProt Q9XGW1 1-988)
chain: MPIRQMKDSSETHLVIKTQPLKHHNPKTVQNGKIPPPSPSPVTVTTPATVTQSQASSPSPPSKNRSRRRNRGGRKSDQGDVCMRPSSRPRKPPPPSQTTSSAVSVATAGEIVAVNHQMQMGVRKNSNFAPRPGFGTLGTKCIVKANHFLADLPTKDLNQYDVTITPEVSSKSVNRAIIAELVRLYKESDLGRRLPAYDGRKSLYTAGELPFTWKEFSVKIVDEDDGIINGPKRERSYKVAIKFVARANMHHLGEFLAGKRADCPQEAVQILDIVLRELSVKRFCPVGRSFFSPDIKTPQRLGEGLESWCGFYQSIRPTQMGLSLNIDMASAAFIEPLPVIEFVAQLLGKDVLSKPLSDSDRVKIKKGLRGVKVEVTHRANVRRKYRVAGLTTQPTRELMFPVDENCTMKSVIEYFQEMYGFTIQHTHLPCLQVGNQKKASYLPMEACKIVEGQRYTKRLNEKQITALLKVTCQRPRDRENDILRTVQHNAYDQDPYAKEFGMNISEKLASVEARILPAPWLKYHENGKEKDCLPQVGQWNMMNKKMINGMTVSRWACVNFSRSVQENVARGFCNELGQMCEVSGMEFNPEPVIPIYSARPDQVEKALKHVYHTSMNKTKGKELELLLAILPDNNGSLYGDLKRICETELGLISQCCLTKHVFKISKQYLANVSLKINVKMGGRNTVLVDAISCRIPLVSDIPTIIFGADVTHPENGEESSPSIAAVVASQDWPEVTKYAGLVCAQAHRQELIQDLYKTWQDPVRGTVSGGMIRDLLISFRKATGQKPLRIIFYRDGVSEGQFYQVLLYELDAIRKACASLEPNYQPPVTFIVVQKRHHTRLFANNHRDKNSTDRSGNILPGTVVDTKICHPTEFDFYLCSHAGIQGTSRPAHYHVLWDENNFTADGIQSLTNNLCYTYARCTRSVSIVPPAYYAHLAAFRARFYLEPEIMQDNGSPGKKNTKTTTVGDVGVKPLPALKENVKRVMFYC
Turning to B1, the binding entry in test [1] was “binds”.

B2: PETAL LOSS (PTL), yeast two-hybrid fusion (protein, UniProt Q9LZS0 1-591)
chain: MDQDQHPQYGIPELRQLMKGGGRTTTTTPSTSSHFPSDFFGFNLAPVQPPPHRLHQFTTDQDMGFLPRGIHGLGGGSSTAGNNSNLNASTSGGGVGFSGFLDGGGFGSGVGGDGGGTGRWPRQETLTLLEIRSRLDHKFKEANQKGPLWDEVSRIMSEEHGYQRSGKKCREKFENLYKYYRKTKEGKAGRQDGKHYRFFRQLEALYGDSNNLVSCPNHNTQFMSSALHGFHTQNPMNVTTTTSNIHNVDSVHGFHQSLSLSNNYNSSELELMTSSSEGNDSSSRRKKRSWKAKIKEFIDTNMKRLIERQDVWLEKLTKVIEDKEEQRMMKEEEWRKIEAARIDKEHLFWAKERARMEARDVAVIEALQYLTGKPLIKPLCSSPEERTNGNNEIRNNSETQNENGSDQTMTNNVCVKGSSSCWGEQEILKLMEIRTSMDSTFQEILGGCSDEFLWEEIAAKLIQLGFDQRSALLCKEKWEWISNGMRKEKKQINKKRKDNSSSCGVYYPRNEENPIYNNRESGYNDNDPHQINEQGNVGSSTSNANANANVTTGNPSGAMAASTNCFPFFMGDGDQNLWESYGLRLSKEENQ
B2: the binding result in test [2] is on record as “no binding”.

B3: … (IND)-YFPC (protein, UniProt O81313 1-198)
chain: MENGMYKKKGVCDSCVSSKSRSNHSPKRSMMEPQPHHLLMDWNKANDLLTQEHAAFLNDPHHLMLDPPPETLIHLDEDEEYDEDMDAMKEMQYMIAVMQPVDIDPATVPKPNRRNVRISDDPQTVVARRRRERISEKIRILKRIVPGGAKMDTASMLDEAIRYTKFLKRQVRILQPHSQIGAPMANPSYLCYYHNSQP
For B3, the binding entry in test [3] is “binds”.

Values taken from PMC4577084.
